Several values for one entry are separate records, joined by “and”; a condition that tells them apart may be missing. Equal values may be shown once. In all, about 360,000 compounds went through this assay and about 7,500 (2.1%) were called active. Inconclusive means that the source gave no clear call. Such entries were picked first, then a sample of the others. Calls come from the whole dose curve; as a rule, active = well fitted cell-killing curve with a large enough effect; inconclusive = small, poorly fitted or top-dose-only effect, or effect the other way, or another doubt; inactive = no such curve, though single readings can be large or run the other way. Potencies of inconclusive entries are doubtful fits and often do not repeat.
assay: qHTS for induction of synthetic lethality in tumor cells producing 2HG: qHTS for the HT-1080-IDH1KD cell line; settings: HT-1080 IDH1 knockdown viability, ATP luminescence, 48 h; activity, negative = toxicity: at 46.1 µM (top of the series) unless noted;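 for activity, negative = toxicity: 0% = DMSO wells and -100% = cell-free medium wells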
Procedure, shortened: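 IDH1KD HT-1080 cells, 750/well, RPMI + 5% FBS; compound pinned after 2 h settling; 48 h, 37 °C; CellTiter-Glo luminescence; % activity normalised to DMSO and no-cell wells; curves fitted, classed by r2 and efficacy.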
Potency is the fitted concentration of half-maximal effect; tags give direction and shape of the fitted curve.

Question: Which Potency does the source give for CCc1nc2ccc(C(=O)NCc3cccs3)cn2c1N(CC)Cc1cccc(Br)c1 here?
Answer: inconclusive: 23.1 µM [cytotoxic, single point]

Question: For CCOC(=O)C1CCN(S(=O)(=O)c2c(C)n[nH]c2C)CC1, which Potency is on record?
Answer: inactive

Question: Which Potency does the source give for Clc1ccc(/C=C\c2nccc3c2[nH]c2ccccc23)cc1 here?
Answer: active: 18.4 µM

Question: Which Potency does the source give for O=C1N/C(=C/c2cccn2-c2ccc(F)cc2)C(=O)N1Cc1ccccc1F here?
Answer: inconclusive: 18.4 µM [cytotoxic, single point]

Question: For O=C(CCc1nc2ccccc2[nH]1)Nc1ccccc1, which Potency is on record?
Answer: inconclusive: 11.6 µM [rising, partial curve]

Question: With CCCCCCCCCCCCCCCC[n+]1cccc2ccccc21 as the molecule, how does the Potency read?
Answer: active: 8.2 µM

Question: Which Potency does the source give for CC(=O)OCCC(C)C here?
Answer: inconclusive: 29.1 µM [cytotoxic, single point]

Question: Which Potency does the source give for CCCn1c2ccc(F)cc2c2nnc(NN)nc21 here?
Answer: inactive

Question: With CC(C)N(Cc1nc(-c2ccc(Cl)cc2)no1)C(=O)CN(C)S(=O)(=O)c1ccc(Cl)cc1 as the molecule, how does the Potency read?
Answer: inconclusive: 28.2 µM [cytotoxic, single point]

Question: For O=C(Cn1nnc(-c2ccccc2F)n1)Nc1ccc(S(=O)(=O)NC2CCCC2)cc1, which Potency is on record?
Answer: inconclusive: 15.8 µM [cytotoxic, single point]

Question: With COc1ccc(-c2oc3ncn(Cc4ccco4)c(=N)c3c2-c2ccc(OC)cc2)cc1 as the molecule, how does the Potency read?
Answer: inconclusive: 29.1 µM [cytotoxic, single point]

Question: For COC(=O)c1ccc(N2C(c3ccsc3)=Cc3cc4c(cc3C2CC(=O)c2ccco2)OCO4)cc1 (stereo not given), which Potency is on record?
Answer: inconclusive: 11.6 µM [cytotoxic, partial curve]

Question: With Oc1ccc(C=NNC(=S)Nc2cccnc2)nc1 as the molecule, how does the Potency read?
Answer: inconclusive: 5.8 µM [cytotoxic, full curve]

Question: For COc1ccc(CN(C)CC2CCCN(CCc3ccccc3C)C2)cc1O (stereo not given), which Potency is on record?
Answer: inconclusive: 14.6 µM [cytotoxic, partial curve]

Question: Which Potency does the source give for Cc1ccc(S(=O)(=O)NC(=O)NC2=NC(C)(C)N(c3ccc(Cl)c(Cl)c3)C(N)=N2)cc1 here?
Answer: active: 1.64 µM

Question: With Cc1sc(NC(=O)CN2CCCC2)nc1-c1ccc2c(c1)CCN2C(=O)c1ccc(F)cc1 as the molecule, how does the Potency read?
Answer: inconclusive: 18.4 µM [cytotoxic, partial curve, poor fit]

Question: With Cc1cccnc1NC(=O)c1ccc2c(c1)OCCO2 as the molecule, how does the Potency read?
Answer: inactive

Question: For c1cc(-c2ccc3[nH]ccc3c2)n2ccnc2c1, which Potency is on record?
Answer: inactive

Question: For C=CCOc1ccc2c(c1)CCC1C2CCC2(C)C(O)C(O)CC12 (stereo not given), which Potency is on record?
Answer: inconclusive: 29.1 µM [cytotoxic, single point]

Question: With CC(=O)c1ccc2c(c1)OCCOCCOCCOCCO2 as the molecule, how does the Potency read?
Answer: inactive

Question: With O=C(Nc1cccc(-c2nc3cccnc3s2)c1)C1c2ccccc2Oc2ccccc21 as the molecule, how does the activity, negative = toxicity read?
Answer: inconclusive: -0.968% [cytotoxic]

Question: For Cc1ccc(S(=O)(=O)NCCC(=O)NCCc2ccc(S(N)(=O)=O)cc2)cc1C, which Potency is on record?
Answer: inactive

Question: Which Potency does the source give for Cc1oc(-c2ccc(-c3ccccc3)cc2)nc1CN(CCO)C(C)C here?
Answer: active: 23.1 µM

Question: Which Potency does the source give for Cc1ccc(SC(=O)c2c(C)noc2-c2cc(C)on2)cc1 here?
Answer: inconclusive: 20.6 µM [cytotoxic, single point]

Question: With Cc1nn2c(N3CCN(C)CC3)cc(C(C)(C)C)nc2c1-c1ccccc1 as the molecule, how does the Potency read?
Answer: active: 16.4 µM

Question: Which Potency does the source give for COc1cc(OC)cc(C(=O)NC(C(=O)N2CCc3ccccc3C2)C(C)C)c1 (stereo not given) here?
Answer: inconclusive: 32.6 µM [cytotoxic, partial curve, poor fit]

Question: Which Potency does the source give for CCOC(=O)CNC(=O)C(Cc1ccccc1)NC(=O)OCc1ccccc1 (stereo not given) here?
Answer: inactive

Question: Which Potency does the source give for CCC(C)N(C(=O)CSc1nc(-c2cccs2)nc2ccccc12)C1CCS(=O)(=O)C1 (stereo not given) here?
Answer: inconclusive: 23.1 µM [cytotoxic, single point]

Question: With Cc1cccc(OCC(=O)Nc2ccc(N3CCN(C(=O)c4ccccc4)CC3)cc2)c1C as the molecule, how does the Potency read?
Answer: inactive

Question: For COC(=O)c1cc(C(=O)Nc2nc3ccccc3[nH]2)cc([N+](=O)[O-])c1, which activity, negative = toxicity is on record?
Answer: inconclusive: -32.1% [cytotoxic]

Question: For O=C(CNc1cccc(Cl)c1)c1ccc(Cl)cc1, which Potency is on record?
Answer: inconclusive: 35.5 µM [cytotoxic, single point]

Question: For CCCn1c(=O)c2ccccc2n2c(Sc3nnnn3-c3ccccc3)nnc12, which Potency is on record?
Answer: inactive

Question: For CCCCCC(=O)N1C[C@@H](n2cc(-c3ccc(F)cc3)nn2)[C@H](O)C[C@@H]1c1ccc(C)cc1, which Potency is on record?
Answer: inconclusive: 20.6 µM [cytotoxic, single point]

Question: Which Potency does the source give for COc1ccc(NC(=S)N2CCN(C(=O)C3CCCO3)CC2)cc1 (stereo not given) here?
Answer: inactive

Question: With CC(C)CC1Nc2ncnc(N3CCN(c4ccccn4)CC3)c2N(Cc2ccc(Br)cc2)C1=O (stereo not given) as the molecule, how does the Potency read?
Answer: inactive and inconclusive: 29.1 µM [cytotoxic, single point]

Question: With O=C1CCCC(O)=C1C(C#Cc1ccccc1)C1=C(O)CCCC1=O as the molecule, how does the Potency read?
Answer: inconclusive: 29.1 µM [cytotoxic, single point]

Question: For O=S(=O)(c1ccc(Br)cc1)N1CCCC1c1nc2ccccc2s1 (stereo not given), which Potency is on record?
Answer: inactive

Question: For CC(C)(C)NC(=O)C(c1ccc(C#N)cc1)n1c(=O)c(-c2ccco2)nc2ccccc21 (stereo not given), which Potency is on record?
Answer: inactive

Question: For CCCCCC/C(=N/O)c1ccccn1, which Potency is on record?
Answer: inconclusive: 29.1 µM [cytotoxic, single point]

Question: With S=C(Nc1ccccc1)N1CCC(Cc2ccccc2)CC1 as the molecule, how does the Potency read?
Answer: inconclusive: 18.4 µM [cytotoxic, single point]

Question: For CCOC(=O)Cc1cnc(NC(=O)CSc2nc(C(C)C)cc(=O)[nH]2)s1, which Potency is on record?
Answer: inactive

Question: With COc1ccc(/C=N/NC(=O)c2ccn[nH]2)cc1COc1ccc(Cl)cc1 as the molecule, how does the Potency read?
Answer: inconclusive: 25.1 µM [cytotoxic, single point]

Question: With Cc1oc(-c2ccc(Cl)cc2)nc1CN1CCC(C(=O)N2CCN(Cc3ccccc3)CC2)CC1 as the molecule, how does the Potency read?
Answer: inconclusive: 14.6 µM [cytotoxic, partial curve]

Question: Which Potency does the source give for COc1ccc2c(c1)CCc1cn3ncc(C#N)c3nc1-2 here?
Answer: inconclusive: 18.4 µM [rising, single point]

Question: For CC(C)(C)NC(=O)C[C@H]1C[C@H](C(=O)N2CCOCC2)[C@@]2(CCC3CCCC3)c3[nH]c4cc(-c5ccco5)ccc4c3CCN2C1=O, which Potency is on record?
Answer: inconclusive: 29.1 µM [cytotoxic, single point]

Reference: PubChem BioAssay AID686971 (National Center for Advancing Translational Sciences (NCATS), 2013)
